23 sequences from paper PMC7819943, “Rice protein-binding microarrays: a tool to detect cis-acting elements near promoter regions in rice” can be followed below.

The list shows a part of the results.

In this test the target is T1, OsWOX13 (Oryza sativa, UniProt Q5QMM3 1-267).
T1 sequence: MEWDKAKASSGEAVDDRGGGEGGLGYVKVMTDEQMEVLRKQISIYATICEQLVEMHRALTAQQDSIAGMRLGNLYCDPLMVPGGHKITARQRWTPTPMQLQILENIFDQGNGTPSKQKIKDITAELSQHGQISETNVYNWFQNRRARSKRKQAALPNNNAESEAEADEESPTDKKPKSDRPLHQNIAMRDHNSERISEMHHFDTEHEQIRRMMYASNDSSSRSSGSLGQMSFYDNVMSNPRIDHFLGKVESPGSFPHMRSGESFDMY
The test is described as follows: protein-binding microarray (RPBM); PBS, 2% BSA, 51.3 ng/ul salmon testes DNA, 50 uM zinc acetate, 200 nM TF, 25 C, 1 h; high values mean tight binding. The conditions noted are these: protein: recombinant; tags: N-terminal polyhistidine and DsRed monomer fusion (pET32a); label: CyDye5-dUTP incorporated in the synthesized complementary strand; 3' TTTTT single-stranded linker to array surface; dsDNA, one strand shown. In short, it runs like this:
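An Axon 4000B scanner gave the binding signal as per-feature fluorescence intensity in arbitrary units. This followed washing of a custom Agilent array that had been incubated for 1 h at 25 °C with 200 nM protein in PBS, 2% BSA, salmon testes DNA and 50 µM zinc acetate. The proteins were transcription factors fused at the N-terminus to polyhistidine and DsRed, expressed in E. coli BL21-CodonPlus and purified on Ni–NTA.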
On to “ATGGTCACCTAAAATCAATTAAATTACGTGTGTATGCTGCCGGAGTCACCTAGTGCAG”, for which the binding signal is 7340 fluorescence intensity (a.u.).

Consider “ATGAAAATTTGACGGGAATATAGTATTATGGTATAGTAAGCGGAGTCACCTAGTGCAG”, for which the binding signal was 3510 fluorescence intensity (a.u.).

For “ATTGATATTAATGAATCTAGACATATATATCTATTTAGATCGGAGTCACCTAGTGCAG”, the binding signal is 3960 fluorescence intensity (a.u.).

For “TCAAATAATTGATAGCACCAAAATTTATCTATATTTTGACCGGAGTCACCTAGTGCAG”, the binding signal is 47300 fluorescence intensity (a.u.).

As for “GGCTGACAGATCTGCTGATGTAGTCGGCTTCACCTCCAGCCGGAGTCACCTAGTGCAG”, the binding signal is 17400 fluorescence intensity (a.u.).

Consider “GTTGATGGATTTGATCATCATTGTCGGGTAAAATTTTCTTCGGAGTCACCTAGTGCAG”, for which the binding signal is 27800 fluorescence intensity (a.u.).

For “GGAACAGGTACCATAATTGTTAATAACCTAATACTGGGCCCGGAGTCACCTAGTGCAG”, the binding signal was 5270 fluorescence intensity (a.u.).

As to “GTTTGACTGCTAGTGCATTAATCAGATTTAAACTTACAATCGGAGTCACCTAGTGCAG”, the binding signal is 8120 fluorescence intensity (a.u.).

Consider “TAAAATTTAAAATTATAAAATTAATAATGCTGTAAATCTACGGAGTCACCTAGTGCAG”, for which the binding signal was 7610 fluorescence intensity (a.u.).

For the sequence “AAAACAAAATTAATGAATTAATTAACCAAGACCCATGGCTCGGAGTCACCTAGTGCAG”, the binding signal is 33100 fluorescence intensity (a.u.).

Take “GTTAATAGCTTTGTTAATCTACTCCACCGGTTCGACAGAACGGAGTCACCTAGTGCAG”: the binding signal is 4090 fluorescence intensity (a.u.).

Turning to “GCTTTTATGATTTTCCAAAGAATTAATTTTCGAATGGGCTCGGAGTCACCTAGTGCAG”, the binding signal was 4920 fluorescence intensity (a.u.).

In the case of “CTTAAATTTCATTATCAAAGTGCCCTCTAAATTCTTTAGACGGAGTCACCTAGTGCAG”, the binding signal is 6920 fluorescence intensity (a.u.).

For the sequence “GTTAAATATTGACAAAATTTAGCATCAAAACCGTAGAGACCGGAGTCACCTAGTGCAG”, the binding signal was 17900 fluorescence intensity (a.u.).

Consider “CATAACATGAATAAACCGGATAAATATTGGACACCCAATGCGGAGTCACCTAGTGCAG”, for which the binding signal was 4660 fluorescence intensity (a.u.).

For the sequence “ATAAATTGCAGGGCAAACCTGTTGCTCACGACGAGAGAGCCGGAGTCACCTAGTGCAG”, the binding signal is 6780 fluorescence intensity (a.u.).

With “AAGATAGATAGATTCATCGCGATCGATCGAGCGGGAGGTACGGAGTCACCTAGTGCAG”, the binding signal was 22500 fluorescence intensity (a.u.).

Take “ATGTAAATTTAAATCTCTCATATTATATCATGATAGCACACGGAGTCACCTAGTGCAG”: the binding signal is 30700 fluorescence intensity (a.u.).

For the sequence “TTCAAATCATTGATGCACACTAGCACTAACCACAGCCAGACGGAGTCACCTAGTGCAG”, the binding signal is 15900 fluorescence intensity (a.u.).

For “ATGTGATTACGGCATTCTCTGCCGATTGCCACTCTGTTCTCGGAGTCACCTAGTGCAG”, the binding signal was 22900 fluorescence intensity (a.u.).

In the case of “GTAAAATTGGGCTTGTTAAACTTGGTAGGCTTTAGCTCTGCGGAGTCACCTAGTGCAG”, the binding signal is 4400 fluorescence intensity (a.u.).

As for “CCTTAATTAAACTATATAACAATAATAAAATTAAAATAGCCGGAGTCACCTAGTGCAG”, the binding signal is 10900 fluorescence intensity (a.u.).

With “ACAATTAATTCATTGTCAACTAATGGAATAGGGATAGAGGCGGAGTCACCTAGTGCAG”, the binding signal was 19100 fluorescence intensity (a.u.).
